32 sequences from paper PMC12820563, “FoxP3 forms a head-to-head dimer in vivo and stabilizes its multimerization on adjacent microsatellites” can be followed below.

The list shows a part of the results.

The assay addresses T1, MBP-FoxP1dN (Mus musculus, UniProt P58462 326-579).
T1 sequence: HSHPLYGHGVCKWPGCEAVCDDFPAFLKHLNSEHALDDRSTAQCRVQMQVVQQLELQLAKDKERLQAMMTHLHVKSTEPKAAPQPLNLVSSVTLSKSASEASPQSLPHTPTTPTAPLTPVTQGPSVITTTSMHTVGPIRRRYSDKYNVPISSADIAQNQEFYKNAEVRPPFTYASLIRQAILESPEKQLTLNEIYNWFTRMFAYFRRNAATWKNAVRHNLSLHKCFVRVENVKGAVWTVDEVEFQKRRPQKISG
The assay can be described thus: PD-seq (MBP pull-down with sequencing); 20 mM Tris-HCl pH 7.5, 100 mM NaCl, 1.5 mM MgCl2, 0.4 uM protein, 0.1 uM dsDNA library, 30 min, room temperature, amylose pull-down; high values mean tight binding. The note with it: protein: recombinant; tags: His6-MBP; chain copies: 2; dsDNA, one strand shown. The essentials: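 A fragment of mouse FoxP3 or FoxP1 without its N-terminus, carrying a His6-MBP tag and produced in E. coli, was combined at 0.4 µM with a 0.1 µM degenerate double-stranded DNA library filled in with Klenow. The mixture sat for 30 min at room temperature in Tris pH 7.5 buffer containing NaCl and MgCl2. Protein–DNA complexes were captured on amylose resin, washed three times, and the DNA was freed with proteinase K, barcoded by PCR and sequenced on Illumina. Binding is expressed as reads-per-million enrichment of pull-down over input, with replicates pooled.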
Take “GATGATTGTTCTCCCAGCTGATGAATTTAATGATTCGAGTAAACAAATTTTCCTAATCTTTCTGTTCAAGCGCCATCTAC”: the binding signal was 0.975 RPM ratio (pull-down/input).

On to “GATGATTGTTCTCCCAGCTGATGAATTATTGCGCTCGAGTAAACAAATTTTCCTAATCTTTCTGTTCAAGCGCCATCTAC”, for which the binding signal is 1.22 RPM ratio (pull-down/input).

“GATGATTGTTCTCCCAGCTGATGAATTTTGACATTCGAGTAAACAAATTTTCCTAATCTTTCTGTTCAAGCGCCATCTAC”: the binding signal was 1.03 RPM ratio (pull-down/input).

In the case of “GATGATTGTTCTCCCAGCTGATGAATTGGAATGGTCGAGTAAACAAATTTTCCTAATCTTTCTGTTCAAGCGCCATCTAC”, the binding signal was 0.839 RPM ratio (pull-down/input).

As for “GATGATTGTTCTCCCAGCTGATGAATTGTCCGATTCGAGTAAACAAATTTTCCTAATCTTTCTGTTCAAGCGCCATCTAC”, the binding signal is 1.02 RPM ratio (pull-down/input).

For “GATGATTGTTCTCCCAGCTGATGAATTGGCCAGATCGAGTAAACAAATTTTCCTAATCTTTCTGTTCAAGCGCCATCTAC”, the binding signal was 0.791 RPM ratio (pull-down/input).

Regarding “GATGATTGTTCTCCCAGCTGATGAATTGCCCTCATCGAGTAAACAAATTTTCCTAATCTTTCTGTTCAAGCGCCATCTAC”, the binding signal was 0.955 RPM ratio (pull-down/input).

Regarding “GATGATTGTTCTCCCAGCTGATGAATTGCTTATTTCGAGTAAACAAATTTTCCTAATCTTTCTGTTCAAGCGCCATCTAC”, the binding signal is 1.62 RPM ratio (pull-down/input).

For the sequence “GATGATTGTTCTCCCAGCTGATGAATTCGAAAGCTCGAGTAAACAAATTTTCCTAATCTTTCTGTTCAAGCGCCATCTAC”, the binding signal is 0.808 RPM ratio (pull-down/input).

Consider “GATGATTGTTCTCCCAGCTGATGAATTAAATGAATCGAGTAAACAAATTTTCCTAATCTTTCTGTTCAAGCGCCATCTAC”, for which the binding signal is 0.923 RPM ratio (pull-down/input).

For “GATGATTGTTCTCCCAGCTGATGAATTACGGGAGTCGAGTAAACAAATTTTCCTAATCTTTCTGTTCAAGCGCCATCTAC”, the binding signal is 0.854 RPM ratio (pull-down/input).

Take “GATGATTGTTCTCCCAGCTGATGAATTCATCCCGTCGAGTAAACAAATTTTCCTAATCTTTCTGTTCAAGCGCCATCTAC”: the binding signal is 0.862 RPM ratio (pull-down/input).

As for “GATGATTGTTCTCCCAGCTGATGAATTACAGTATTCGAGTAAACAAATTTTCCTAATCTTTCTGTTCAAGCGCCATCTAC”, the binding signal was 1.38 RPM ratio (pull-down/input).

For “GATGATTGTTCTCCCAGCTGATGAATTGAGCGCTTCGAGTAAACAAATTTTCCTAATCTTTCTGTTCAAGCGCCATCTAC”, the binding signal is 0.833 RPM ratio (pull-down/input).

“GATGATTGTTCTCCCAGCTGATGAATTTGTCCTATCGAGTAAACAAATTTTCCTAATCTTTCTGTTCAAGCGCCATCTAC”: the binding signal is 1.06 RPM ratio (pull-down/input).

For the sequence “GATGATTGTTCTCCCAGCTGATGAATTGAGCATTTCGAGTAAACAAATTTTCCTAATCTTTCTGTTCAAGCGCCATCTAC”, the binding signal is 1.07 RPM ratio (pull-down/input).

On to “GATGATTGTTCTCCCAGCTGATGAATTAGAGTTCTCGAGTAAACAAATTTTCCTAATCTTTCTGTTCAAGCGCCATCTAC”, for which the binding signal is 0.836 RPM ratio (pull-down/input).

Consider “GATGATTGTTCTCCCAGCTGATGAATTGCCATTTTCGAGTAAACAAATTTTCCTAATCTTTCTGTTCAAGCGCCATCTAC”, for which the binding signal is 1.18 RPM ratio (pull-down/input).

For the sequence “GATGATTGTTCTCCCAGCTGATGAATTATAACGTTCGAGTAAACAAATTTTCCTAATCTTTCTGTTCAAGCGCCATCTAC”, the binding signal is 1.11 RPM ratio (pull-down/input).

For “GATGATTGTTCTCCCAGCTGATGAATTGATGCTTTCGAGTAAACAAATTTTCCTAATCTTTCTGTTCAAGCGCCATCTAC”, the binding signal is 1.62 RPM ratio (pull-down/input).

With “GATGATTGTTCTCCCAGCTGATGAATTGGTGCCTTCGAGTAAACAAATTTTCCTAATCTTTCTGTTCAAGCGCCATCTAC”, the binding signal is 0.942 RPM ratio (pull-down/input).

Regarding “GATGATTGTTCTCCCAGCTGATGAATTGGGACCTTCGAGTAAACAAATTTTCCTAATCTTTCTGTTCAAGCGCCATCTAC”, the binding signal was 0.829 RPM ratio (pull-down/input).

Take “GATGATTGTTCTCCCAGCTGATGAATTTGTGAATTCGAGTAAACAAATTTTCCTAATCTTTCTGTTCAAGCGCCATCTAC”: the binding signal is 1.14 RPM ratio (pull-down/input).

For “GATGATTGTTCTCCCAGCTGATGAATTAGTAGATTCGAGTAAACAAATTTTCCTAATCTTTCTGTTCAAGCGCCATCTAC”, the binding signal was 1.02 RPM ratio (pull-down/input).

Consider “GATGATTGTTCTCCCAGCTGATGAATTAGGTACATCGAGTAAACAAATTTTCCTAATCTTTCTGTTCAAGCGCCATCTAC”, for which the binding signal was 1.09 RPM ratio (pull-down/input).

For “GATGATTGTTCTCCCAGCTGATGAATTGTTTTCATCGAGTAAACAAATTTTCCTAATCTTTCTGTTCAAGCGCCATCTAC”, the binding signal is 1.96 RPM ratio (pull-down/input).

As to “GATGATTGTTCTCCCAGCTGATGAATTTATTCGCTCGAGTAAACAAATTTTCCTAATCTTTCTGTTCAAGCGCCATCTAC”, the binding signal is 1.13 RPM ratio (pull-down/input).

For “GATGATTGTTCTCCCAGCTGATGAATTCTTAAGATCGAGTAAACAAATTTTCCTAATCTTTCTGTTCAAGCGCCATCTAC”, the binding signal was 0.893 RPM ratio (pull-down/input).

Regarding “GATGATTGTTCTCCCAGCTGATGAATTAACTCCCTCGAGTAAACAAATTTTCCTAATCTTTCTGTTCAAGCGCCATCTAC”, the binding signal was 0.791 RPM ratio (pull-down/input).

As for “GATGATTGTTCTCCCAGCTGATGAATTCCGGCATTCGAGTAAACAAATTTTCCTAATCTTTCTGTTCAAGCGCCATCTAC”, the binding signal was 0.921 RPM ratio (pull-down/input).

For the sequence “GATGATTGTTCTCCCAGCTGATGAATTACAAGAATCGAGTAAACAAATTTTCCTAATCTTTCTGTTCAAGCGCCATCTAC”, the binding signal is 1.3 RPM ratio (pull-down/input).

In the case of “GATGATTGTTCTCCCAGCTGATGAATTTATAAGGTCGAGTAAACAAATTTTCCTAATCTTTCTGTTCAAGCGCCATCTAC”, the binding signal is 0.946 RPM ratio (pull-down/input).
